Values joined by “and” are separate entries in the source; they are usually repeats but may differ in a detail not shown here. Identical values can stand only once.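 Tested at 5 concentrations; 48 h exposure; 96-well plates; endpoints linearly interpolated, else capped at highest concentration. At the GI50, growth is halved. TGI denotes the concentration required for complete inhibition of growth.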
test system: NCI-H322M lung; assay: NCI anticancer screen, dose series, 48 h

Q: How did the TGI turn out when OCCN1CCN(CCO)Cc2ccccc2OCCOc2ccccc2C1 was run?
A: The TGI was over 100 µM.

Q: With COc1cc2c(c(OC)c1OC)-c1ccc(OC)c(=O)cc1[C@@H](NC(=O)CCl)CC2 as the compound, how does the GI50 read?
A: Its GI50 is under 0.0189 µM.

Q: What about the TGI of the same compound?
A: Its TGI is 19.5 µM.

Q: With C=C(C)C(=O)NC(N)=NC#N as the compound, how does the TGI read?
A: The TGI was 320 µM.

Q: What does the source list for CN1CCN(C(=O)c2ccc(NC(=O)Nc3ccc(N(C)c4ccnc(Nc5ccc(CS(C)(=O)=O)cc5)n4)cc3)cc2)CC1?
A: GI50: > 25 µM; TGI: > 25 µM

Q: CC(C)=CCNc1ncnc2c1ncn2CCC(=O)OC(C)(C)C was tested. Which TGI did it give?
A: The TGI was over 100 µM.

Q: What does the source list for COc1ccc(OC)c(/C=C/c2nnc(Nc3ccc(Cl)cc3)o2)c1?
A: GI50: 30.5 µM; TGI: > 100 µM

Q: How did the TGI turn out when CC1(C)C(O)c2ccccc2OC1N1CCN(C2Oc3ccccc3C(O)C2(C)C)CC1 (configuration not stated) was run?
A: The TGI was over 100 µM.

Q: With C[C@]12CCC[C@H](OC=O)C1(O)C[C@H](C(=O)O)CC2 (some centres not stated) as the compound, how does the TGI read?
A: The TGI was over 100 µM.

Q: For CC1(C)S[C@@H]2[C@H](NC(=O)CCC[C@@H](N)C(=O)O)C(=O)N2[C@H]1C(=O)O, which TGI is on record?
A: The TGI was over 50 µM.

Q: How did the TGI turn out when O=C1CCC(=O)N1CNc1ccc2c(c1)Sc1ccccc1O2 was run?
A: Its TGI is over 100 µM.

Q: Which GI50 does the source give for O=C1C2CC3C(CC2C(=O)[N]1[Sn]([c]1ccccc1)([c]1ccccc1)[c]1ccccc1)C1(Cl)C(Cl)=C(Cl)C3(Cl)C1(Cl)Cl (configuration not stated) here?
A: Its GI50 is 0.13 µM.

Q: And the TGI?
A: The TGI was 0.278 µM.

Q: With CCSC(=Nc1ccccc1)SC as the compound, how does the TGI read?
A: Its TGI is over 100 µM.

Q: With CC(=O)c1ccc(-c2oc(-c3ccccc3)cc2-c2ccc3c(c2)OCO3)s1 as the compound, how does the TGI read?
A: The TGI was over 100 µM.

Q: O=C(CCl)N1CCCCC1C1(c2cc3ccccc3[nH]2)OCCO1 (configuration not stated) was tested. Which TGI did it give?
A: The TGI was 14.7 µM.

Q: CCCCCCCCCCCCCCCCOP(=O)(O)OP(=O)(O)OCC1OC(n2ccc(N)nc2=O)CC1O (configuration not stated) was tested. Which TGI did it give?
A: Its TGI is over 100 µM.

Q: For CC(C)(C)CN1[C@@H]2CCCC[C@H]2N(CC(C)(C)C)P1(=O)Cc1ccccc1, which TGI is on record?
A: The TGI was 27.8 µM.

Q: With O=C(NO)c1cccc(OCc2ccc(Br)cc2)c1 as the compound, how does the TGI read?
A: Its TGI is over 87.6 µM.

Q: How did the TGI turn out when Cc1nc(Nc2nnc(-c3cc([N+](=O)[O-])cc([N+](=O)[O-])c3C)o2)sc1C(=O)CC(=O)Cc1nc2ccc(Cl)cc2[nH]c1=O was run?
A: Its TGI is over 100 µM.

Q: With CC12CN(CC[N+](C)(C)C)CC1(C)C1CCC2O1 (configuration not stated) as the compound, how does the TGI read?
A: The TGI was over 100 µM.

Q: With C[C@H](c1ccc(Cl)cc1N)N1C(=O)c2cc(I)ccc2N(CCCN2CCN(C)CC2)C(=O)[C@@H]1c1ccc(Cl)cc1 as the compound, how does the GI50 read?
A: Its GI50 is 1.54 µM.

Q: And the TGI?
A: Its TGI is 2.94 µM.

Q: Which GI50 does the source give for COc1cccc(-c2nn(-c3ccccc3)cc2-c2ccnc(NCCNS(=O)(=O)c3ccc(C(F)(F)F)cc3)c2)c1 here?
A: The GI50 was 4.67 µM.

Q: What about the TGI of the same compound?
A: Its TGI is over 100 µM.

Q: How did the TGI turn out when CCOC(=O)C1Cc2c(ccc(OC)c2OC)C(=O)C1N (configuration not stated) was run?
A: The TGI was over 100 µM.

Q: Which TGI does the source give for COc1ccc(C2Oc3c(cccc3OC)C=C2[N+](=O)[O-])cc1OC (configuration not stated) here?
A: The TGI was over 100 µM.

Q: With CN(CCc1ccc(Br)cc1)CCN1CCCCC1 as the compound, how does the TGI read?
A: Its TGI is over 100 µM.

Q: With COc1cc(-c2c[nH]c3ccccc23)nc(-c2c[nH]c3ccccc23)n1 as the compound, how does the TGI read?
A: Its TGI is 19.7 µM.

Q: For COc1ccc(NC(=O)C(=O)C(CC2C(=O)NC(=S)NC2=O)C(=O)c2ccc3ccccc3c2)c([N+](=O)[O-])c1 (configuration not stated), which TGI is on record?
A: The TGI was over 100 µM.

Q: With COC(=O)c1cc(C#N)[nH]c1-c1ccsc1 as the compound, how does the TGI read?
A: Its TGI is over 100 µM.

Q: Which TGI does the source give for O=C(O)CN1CCNCCN(CC(=O)O)CC1 here?
A: The TGI was over 100 µM.

Q: CC1CC(N)=Nc2ccccc2N1Cc1ccccc1 (configuration not stated) was tested. Which TGI did it give?
A: Its TGI is over 100 µM.

Q: Which results are given for NC1=NC(=O)N2CC12 (configuration not stated)?
A: GI50: 538 µM; TGI: > 100 µM and 1170 µM

Q: CC1=CC(C)C(C)N(CCNC(=O)Nc2ccccc2)c2ccccc21 (configuration not stated) was tested. Which TGI did it give?
A: The TGI was 55.4 µM.

Q: How did the TGI turn out when CCCC(OCC)(OCC)OCC was run?
A: Its TGI is over 100 µM.

Q: With CC(N)Cc1cccc(C(F)(F)F)c1 (configuration not stated) as the compound, how does the TGI read?
A: The TGI was over 100 µM.

Q: How did the TGI turn out when COC(=O)c1cc(C)ccc1/C=C1\Cc2cc(C)c(C)cc2C1=O was run?
A: Its TGI is over 100 µM.

Q: Which TGI does the source give for N=c1nc(N)c2cc3c(N)nc(=N)c3cc12 here?
A: Its TGI is over 96 µM.

Q: For Cc1nc(NC(=S)NC(=O)c2ccc(Cl)c(Cl)c2)sc1C(=O)/C=C/c1ccccc1[N+](=O)[O-], which TGI is on record?
A: The TGI was over 100 µM.

Q: How did the TGI turn out when Cc1cc(Cl)nc(NC(=O)CSc2ccc(Cl)cc2)n1 was run?
A: Its TGI is over 100 µM.

Q: With NCC(=O)C(O)C(O)C(O)CO (configuration not stated) as the compound, how does the TGI read?
A: Its TGI is over 100 µM.

Q: With COc1cc2c(c(OC)c1OC)-c1ccc([O-])c(=O)cc1[C@@H](NC(C)=O)CC2.COc1cc2c(c(OC)c1OC)-c1ccc([O-])c(=O)cc1[C@@H](NC(C)=O)CC2.[Cu+2] as the compound, how does the GI50 read?
A: The GI50 was 4.33 µM.

Q: And the TGI?
A: The TGI was over 100 µM.

Q: O=c1c(O)c(-c2ccc(O)c(O)c2)oc2cc(O)ccc12 was tested. Which TGI did it give?
A: Its TGI is 63.5 µM.

Q: With C=C(Cl)C(C)(Cl)CCC(Cl)C(C)(C)Cl (configuration not stated) as the compound, how does the TGI read?
A: The TGI was over 100 µM.

Q: For CC1=C(C)SC(=C2Sc3c(n(C)c(=O)[nH]c3=O)S2)S1, which TGI is on record?
A: The TGI was over 100 µM.

Q: Which TGI does the source give for Cc1cc(N(CCC#N)CCC#N)ccc1/C=C1/CN(N2C(=O)/C(=C/c3ccc(N(CCC#N)CCC#N)cc3C)N=C2c2ccccc2)C(c2ccccc2)=N1 here?
A: The TGI was over 100 µM.

Q: Which TGI does the source give for COC(=O)/C=C\c1ccc2c(c1)CC1(C2)Cc2ccc(/C=C/C(=O)OC)cc2C1 (configuration not stated) here?
A: Its TGI is over 31.6 µM.

Q: How did the GI50 turn out when COc1ccc(C(=S)c2cc(OC)c(OC)c(OC)c2)cc1OC(=O)CCl was run?
A: The GI50 was 0.0566 µM.

Q: And the TGI?
A: The TGI was over 100 µM.

Q: With CC1(C)CCC(=O)c2c(O)ccc(O)c21 as the compound, how does the TGI read?
A: The TGI was over 100 µM.

Q: For COc1ccc2cc(C(=O)c3ccccc3C(=O)O)ccc2c1, which TGI is on record?
A: The TGI was over 100 µM.

Q: O=C(OC(C(=O)O)C(OC(=O)c1ccccc1)C(=O)O)c1ccccc1 (configuration not stated) (tested in a mixture with another compound) was tested. Which TGI did it give?
A: The TGI was over 100 µM.
